# This is one part of the list.
# Experiments:
# Experiment in all cases: glycan array binding signal (z-score within array); higher = stronger binding
# Details in all cases: glycan notation: IUPAC condensed, linker removed
# [1] = target: Fuc(a1-2)Gal
# Outline: (§1)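 Glycan array data were curated from 3228 arrays in the Consortium for Functional Glycomics database and kept only where the protein sequence was available. Glycan names were converted to IUPAC-condensed notation, and columns mapping to the same glycan were averaged. The binding signal is a within-array Z-score, averaged across arrays of the same protein sequence at different concentrations or buffers and across linkers. Negative Z-scores can be read as non-binding.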
# [2] = target: Fuc(a1-2)Gal(b1-3)GalNAc
# Outline: as §1
# [3] = target: Fuc(a1-2)Gal(b1-3)GalNAc(a1-3)[Fuc(a1-2)]Gal(b1-4)Glc
# Outline: as §1
# [4] = target: Fuc(a1-2)Gal(b1-3)GalNAc(a1-3)[Fuc(a1-2)]Gal(b1-4)GlcNAc
# Outline: as §1
# [5] = target: Fuc(a1-2)Gal(b1-3)GalNAc(b1-3)Gal
# Outline: as §1
# [6] = target: Fuc(a1-2)Gal(b1-3)GalNAc(b1-3)Gal(a1-4)Gal(b1-4)Glc
# Outline: as §1
# [7] = target: Fuc(a1-2)Gal(b1-3)GalNAc(b1-4)[Neu5Ac(a2-3)]Gal(b1-4)Glc
# Outline: as §1
# [8] = target: Fuc(a1-2)Gal(b1-3)GlcNAc
# Outline: as §1
# [9] = target: Fuc(a1-2)Gal(b1-3)GlcNAc(b1-2)Man(a1-3)[Fuc(a1-2)Gal(b1-3)GlcNAc(b1-2)Man(a1-6)]Man(b1-4)GlcNAc(b1-4)GlcNAc
# Outline: as §1
# [10] = target: Fuc(a1-2)Gal(b1-3)GlcNAc(b1-2)Man(a1-3)[Fuc(a1-2)Gal(b1-3)GlcNAc(b1-2)Man(a1-6)]Man(b1-4)GlcNAc(b1-4)[Fuc(a1-6)]GlcNAc
# Outline: as §1
# [11] = target: Fuc(a1-2)Gal(b1-3)GlcNAc(b1-3)Gal(b1-4)Glc
# Outline: as §1
# [12] = target: Fuc(a1-2)Gal(b1-3)GlcNAc(b1-3)GalNAc
# Outline: as §1
# [13] = target: Fuc(a1-2)Gal(b1-3)GlcNAc(b1-3)[Fuc(a1-2)Gal(b1-3)GlcNAc(b1-6)]GalNAc
# Outline: as §1
# [14] = target: Fuc(a1-2)Gal(b1-3)GlcNAc(b1-3)[Gal(b1-4)GlcNAc(b1-6)]Gal(b1-4)Glc
# Outline: as §1
# [15] = target: Fuc(a1-2)Gal(b1-3)GlcNAc(b1-3)[Neu5Ac(a2-6)Gal(b1-4)GlcNAc(b1-6)]Gal(b1-4)Glc
# Outline: as §1
# [16] = target: Fuc(a1-2)Gal(b1-3)GlcNAc6S
# Outline: as §1
# [17] = target: Fuc(a1-2)Gal(b1-3)[Fuc(a1-4)]GlcNAc
# Outline: as §1
# [18] = target: Fuc(a1-2)Gal(b1-3)[Fuc(a1-4)]GlcNAc(b1-2)Man(a1-3)[Fuc(a1-2)Gal(b1-3)[Fuc(a1-4)]GlcNAc(b1-2)Man(a1-3)]Man(b1-4)GlcNAc(b1-4)GlcNAc
# Outline: as §1
# [19] = target: Fuc(a1-2)Gal(b1-3)[Fuc(a1-4)]GlcNAc(b1-2)Man(a1-3)[Fuc(a1-2)Gal(b1-3)[Fuc(a1-4)]GlcNAc(b1-2)Man(a1-6)]Man(b1-4)GlcNAc(b1-4)[Fuc(a1-6)]GlcNAc(b1-4)[Fuc(a1-6)]GlcNAc
# Outline: as §1
# [20] = target: Fuc(a1-2)Gal(b1-3)[Fuc(a1-4)]GlcNAc(b1-3)[Fuc(a1-3)[Gal(b1-4)]GlcNAc(b1-6)]Gal(b1-4)Glc
# Outline: as §1
# [21] = target: Fuc(a1-2)Gal(b1-3)[Fuc(a1-4)]GlcNAc(b1-3)[Gal(b1-4)GlcNAc(b1-6)]Gal(b1-4)Glc
# Outline: as §1
# [22] = target: Fuc(a1-2)Gal(b1-4)Glc
# Outline: as §1
# [23] = target: Fuc(a1-2)Gal(b1-4)Glc6S
# Outline: as §1
# [24] = target: Fuc(a1-2)Gal(b1-4)GlcNAc
# Outline: as §1
# [25] = target: Fuc(a1-2)Gal(b1-4)GlcNAc(b1-2)Man
# Outline: as §1
# [26] = target: Fuc(a1-2)Gal(b1-4)GlcNAc(b1-2)Man(a1-3)[Fuc(a1-2)Gal(b1-4)GlcNAc(b1-2)Man(a1-6)]Man(b1-4)GlcNAc(b1-4)GlcNAc
# Outline: as §1
# [27] = target: Fuc(a1-2)Gal(b1-4)GlcNAc(b1-2)Man(a1-3)[Fuc(a1-2)Gal(b1-4)GlcNAc(b1-2)Man(a1-6)]Man(b1-4)GlcNAc(b1-4)[Fuc(a1-6)]GlcNAc
# Outline: as §1
# [28] = target: Fuc(a1-2)Gal(b1-4)GlcNAc(b1-2)[Fuc(a1-2)Gal(b1-4)GlcNAc(b1-4)]Man(a1-3)[Fuc(a1-2)Gal(b1-4)GlcNAc(b1-2)Man(a1-6)]Man(b1-4)GlcNAc(b1-4)GlcNAc
# Outline: as §1
# [29] = target: Fuc(a1-2)Gal(b1-4)GlcNAc(b1-3)Gal(b1-4)GlcNAc
# Outline: as §1
# [30] = target: Fuc(a1-2)Gal(b1-4)GlcNAc(b1-3)Gal(b1-4)GlcNAc(b1-2)Man(a1-3)[Fuc(a1-2)Gal(b1-4)GlcNAc(b1-3)Gal(b1-4)GlcNAc(b1-2)Man(a1-6)]Man(b1-4)GlcNAc(b1-4)GlcNAc
# Outline: as §1
# [31] = target: Fuc(a1-2)Gal(b1-4)GlcNAc(b1-3)Gal(b1-4)GlcNAc(b1-3)Gal(b1-4)GlcNAc
# Outline: as §1
# [32] = target: Fuc(a1-2)Gal(b1-4)GlcNAc(b1-3)GalNAc
# Outline: as §1
# [33] = target: Fuc(a1-2)Gal(b1-4)GlcNAc(b1-3)[Fuc(a1-2)Gal(b1-4)GlcNAc(b1-6)]GalNAc
# Outline: as §1
# [34] = target: Fuc(a1-2)Gal(b1-4)GlcNAc(b1-3)[Fuc(a1-3)[Gal(b1-4)]GlcNAc(b1-6)]Gal(b1-4)Glc
# Outline: as §1
# [35] = target: Fuc(a1-2)Gal(b1-4)GlcNAc(b1-6)GalNAc
# Outline: as §1
# [36] = target: Fuc(a1-2)Gal(b1-4)GlcNAc6S
# Outline: as §1
# [37] = target: Fuc(a1-2)Gal(b1-4)[Fuc(a1-3)]GlcNAc
# Outline: as §1
# [38] = target: Fuc(a1-2)Gal(b1-4)[Fuc(a1-3)]GlcNAc(b1-2)Man(a1-3)[Fuc(a1-2)Gal(b1-4)[Fuc(a1-3)]GlcNAc(b1-2)Man(a1-6)]Man(b1-4)GlcNAc(b1-4)[Fuc(a1-6)]GlcNAc
# Outline: as §1
# [39] = target: Fuc(a1-2)Gal(b1-4)[Fuc(a1-3)]GlcNAc(b1-2)[Fuc(a1-2)Gal(b1-4)[Fuc(a1-3)]GlcNAc(b1-4)]Man(a1-3)[Fuc(a1-2)Gal(b1-4)[Fuc(a1-3)]GlcNAc(b1-2)Man(a1-6)]Man(b1-4)GlcNAc(b1-4)GlcNAc
# Outline: as §1
# [40] = target: Fuc(a1-2)Gal(b1-4)[Fuc(a1-3)]GlcNAc(b1-3)Gal(b1-4)[Fuc(a1-3)]GlcNAc
# Outline: as §1
# [41] = target: Fuc(a1-2)Gal(b1-4)[Fuc(a1-3)]GlcNAc(b1-3)Gal(b1-4)[Fuc(a1-3)]GlcNAc(b1-3)Gal(b1-4)[Fuc(a1-3)]GlcNAc
# Outline: as §1
# [42] = target: Fuc(a1-2)Gal(b1-4)[Fuc(a1-3)]GlcNAc(b1-3)GalNAc
# Outline: as §1
# [43] = target: Fuc(a1-2)Gal(b1-4)[Fuc(a1-3)]GlcNAc(b1-3)[Neu5Ac(a2-6)Gal(b1-4)GlcNAc(b1-6)]Gal(b1-4)Glc
# Outline: as §1
# [44] = target: Fuc(a1-2)Gal3S(b1-4)GlcNAc
# Outline: as §1
# [45] = target: Fuc(a1-2)Gal6S(b1-3)GlcNAc
# Outline: as §1
# [46] = target: Fuc(a1-2)Gal6S(b1-3)GlcNAc6S
# Outline: as §1
# [47] = target: Fuc(a1-2)Gal6S(b1-4)Glc
# Outline: as §1
# [48] = target: Fuc(a1-2)Gal6S(b1-4)Glc6S
# Outline: as §1
# [49] = target: Fuc(a1-2)[Gal(a1-3)]Gal
# Outline: as §1
# [50] = target: Fuc(a1-2)[Gal(a1-3)]Gal(b1-3)GalNAc
# Outline: as §1
# [51] = target: Fuc(a1-2)[Gal(a1-3)]Gal(b1-3)GalNAc(b1-3)Gal(a1-4)Gal(b1-4)Glc
# Outline: as §1
# [52] = target: Fuc(a1-2)[Gal(a1-3)]Gal(b1-3)GlcNAc
# Outline: as §1
# [53] = target: Fuc(a1-2)[Gal(a1-3)]Gal(b1-3)GlcNAc(b1-2)Man(a1-3)[Fuc(a1-2)[Gal(a1-3)]Gal(b1-3)GlcNAc(b1-2)Man(a1-6)]Man(b1-4)GlcNAc(b1-4)GlcNAc
# Outline: as §1
# [54] = target: Fuc(a1-2)[Gal(a1-3)]Gal(b1-3)GlcNAc(b1-2)Man(a1-3)[Fuc(a1-2)[Gal(a1-3)]Gal(b1-3)GlcNAc(b1-2)Man(a1-6)]Man(b1-4)GlcNAc(b1-4)[Fuc(a1-6)]GlcNAc
# Outline: as §1
# [55] = target: Fuc(a1-2)[Gal(a1-3)]Gal(b1-3)GlcNAc(b1-3)GalNAc
# Outline: as §1
# [56] = target: Fuc(a1-2)[Gal(a1-3)]Gal(b1-3)GlcNAc(b1-6)GalNAc
# Outline: as §1
# [57] = target: Fuc(a1-2)[Gal(a1-3)]Gal(b1-4)Glc
# Outline: as §1
# [58] = target: Fuc(a1-2)[Gal(a1-3)]Gal(b1-4)GlcNAc
# Outline: as §1
# [59] = target: Fuc(a1-2)[Gal(a1-3)]Gal(b1-4)GlcNAc(b1-2)Man
# Outline: as §1
# [60] = target: Fuc(a1-2)[Gal(a1-3)]Gal(b1-4)GlcNAc(b1-2)Man(a1-3)[Fuc(a1-2)[Gal(a1-3)]Gal(b1-4)GlcNAc(b1-2)Man(a1-6)]Man(b1-4)GlcNAc(b1-4)GlcNAc
# Outline: as §1
binder,measurement,setting,value
AidA (Burkholderia cenocepacia) (protein) MSRVTDVLVSFDTETILKKYPNPSKNPAAPTLIDWRYVYMVTNQDNVISGQAGGELDLKAQVGDLIRWRETSLSLGFENQVVFYKFIGNVGNDLISTPTPRVAEASIPVPNTSKPEVPTCQKVANYYWSSECLKVGRVTYHFQFQIIDRNCQSQGCFSWDPFISIHN,glycan array binding signal (z-score),[1],0.775
same,glycan array binding signal (z-score),[2],-0.214
same,glycan array binding signal (z-score),[3],-0.374
same,glycan array binding signal (z-score),[4],-0.452
same,glycan array binding signal (z-score),[5],0.864
same,glycan array binding signal (z-score),[6],-0.416
same,glycan array binding signal (z-score),[7],-0.274
same,glycan array binding signal (z-score),[8],-0.432
same,glycan array binding signal (z-score),[9],0.697
same,glycan array binding signal (z-score),[10],0.268
same,glycan array binding signal (z-score),[11],-0.217
same,glycan array binding signal (z-score),[12],-0.808
same,glycan array binding signal (z-score),[13],-0.616
same,glycan array binding signal (z-score),[14],0.16
same,glycan array binding signal (z-score),[15],-0.287
same,glycan array binding signal (z-score),[16],0.027
same,glycan array binding signal (z-score),[17],-0.268
same,glycan array binding signal (z-score),[18],0.069
same,glycan array binding signal (z-score),[19],-0.336
same,glycan array binding signal (z-score),[20],-0.286
same,glycan array binding signal (z-score),[21],-0.394
same,glycan array binding signal (z-score),[22],0.106
same,glycan array binding signal (z-score),[23],-0.383
same,glycan array binding signal (z-score),[24],-0.597
same,glycan array binding signal (z-score),[25],0.458
same,glycan array binding signal (z-score),[26],-0.247
same,glycan array binding signal (z-score),[27],-0.443
same,glycan array binding signal (z-score),[28],-0.343
same,glycan array binding signal (z-score),[29],-0.74
same,glycan array binding signal (z-score),[30],0.938
same,glycan array binding signal (z-score),[31],-0.157
same,glycan array binding signal (z-score),[32],0.035
same,glycan array binding signal (z-score),[33],0.357
same,glycan array binding signal (z-score),[34],0.059
same,glycan array binding signal (z-score),[35],0.111
same,glycan array binding signal (z-score),[36],-0.628
same,glycan array binding signal (z-score),[37],-0.335
same,glycan array binding signal (z-score),[38],1.33
same,glycan array binding signal (z-score),[39],0.273
same,glycan array binding signal (z-score),[40],0.21
same,glycan array binding signal (z-score),[41],-0.075
same,glycan array binding signal (z-score),[42],1.28
same,glycan array binding signal (z-score),[43],0.33
same,glycan array binding signal (z-score),[44],0.094
same,glycan array binding signal (z-score),[45],0.304
same,glycan array binding signal (z-score),[46],-0.604
same,glycan array binding signal (z-score),[47],-0.382
same,glycan array binding signal (z-score),[48],-0.235
same,glycan array binding signal (z-score),[49],0.288
same,glycan array binding signal (z-score),[50],-0.752
same,glycan array binding signal (z-score),[51],-0.206
same,glycan array binding signal (z-score),[52],0.339
same,glycan array binding signal (z-score),[53],0.554
same,glycan array binding signal (z-score),[54],1.35
same,glycan array binding signal (z-score),[55],-0.322
same,glycan array binding signal (z-score),[56],0.594
same,glycan array binding signal (z-score),[57],0.234
same,glycan array binding signal (z-score),[58],0.756
same,glycan array binding signal (z-score),[59],-0.764
same,glycan array binding signal (z-score),[60],0.558

# — the supplement of paper PMC8728848
